Some of the results follow. The energies were worked out here from pooled read counts, against the library average; single values are noisy.
Molecular target: T1, Pho4 (S. cerevisiae) (UniProt P07270)
T1 sequence: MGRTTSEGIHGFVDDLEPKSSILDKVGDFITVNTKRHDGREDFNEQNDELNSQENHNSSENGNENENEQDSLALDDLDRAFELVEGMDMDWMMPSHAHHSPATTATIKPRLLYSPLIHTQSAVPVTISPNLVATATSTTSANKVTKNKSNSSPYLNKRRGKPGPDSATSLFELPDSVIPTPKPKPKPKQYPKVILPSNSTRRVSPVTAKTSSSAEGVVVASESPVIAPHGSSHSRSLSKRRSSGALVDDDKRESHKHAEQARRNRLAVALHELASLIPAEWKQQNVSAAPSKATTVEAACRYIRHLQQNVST
Assay: relative binding free energy (BET-seq); higher = weaker binding
Conditions: reference: library average

| Sequence | relative binding free energy [kcal/mol] |
| --- | --- |
| AGATTCACGTGGAGGG | 0.17 |
| TGTGGCACGTGCTGTG | -0.17 |
| TTTATCACGTGCTGGC | 0.02 |
| GTGGACACGTGGGCGC | -0.07 |
| CGGTGCACGTGAGTTC | 0.35 |
| GAGTTCACGTGTTAAG | 0.45 |
| GAATGCACGTGGTTTA | 0.06 |
| TGGAGCACGTGCGAGG | -0.23 |
| TTAGTCACGTGGCTTA | 0.06 |
| GATTTCACGTGTAAAG | 0.38 |
| CGTGTCACGTGAATGT | 0.17 |
| AAAGTCACGTGATATG | 0.19 |
| GTCGACACGTGTTTGT | 0.09 |
| CATAGCACGTGTATGT | -0.08 |
| GGAAGCACGTGGGTGT | -0.2 |
| TGAGCCACGTGGTGGT | -0.11 |
| ATGAGCACGTGATGTA | 0.04 |
| GTCGTCACGTGTCGTA | 0.23 |
| TAGGGCACGTGCTTGT | -0.23 |
| GGGTTCACGTGAGTGG | 0.39 |
| CAGGTCACGTGTGGCA | 0.19 |
| ATTTGCACGTGTTGCA | -0.04 |
| ATTCGCACGTGGTAGG | -0.18 |

| Sequence | relative binding free energy [kcal/mol] |
| --- | --- |
| GCTTGCACGTGGTATT | -0.12 |
| TCTGGCACGTGTTGCA | -0.04 |
| GTGGTCACGTGGATTA | 0.31 |
| AATCGCACGTGCAGGT | 0.13 |
| TATCGCACGTGATAGG | 0.04 |
| TTTGCCACGTGGCTGG | -0.07 |
| CGTGGCACGTGTCGGG | -0.01 |
| TTGGGCACGTGTCAGC | 0.03 |
| TGAGGCACGTGGGTAC | -0.21 |
| GTGCCCACGTGGGCGG | -0.16 |
| GAGGGCACGTGAAGCA | 0.29 |
| GGAACCACGTGGGTGG | -0.26 |
| TGTAACACGTGATCGT | 0.01 |
| GTCTTCACGTGGGTTC | 0.26 |
| AAGAACACGTGTGTTT | -0.12 |
| GTACTCACGTGGGGGG | 0.07 |
| TTAGACACGTGGTTGT | -0.17 |
| GGTGGCACGTGTTTAT | -0.07 |
| CGGTACACGTGGGAAT | 0.08 |
| ATTTGCACGTGGCATG | -0.14 |
| GTCGCCACGTGGGGTT | -0.16 |
| GTTGACACGTGCGTAT | 0.03 |
| TTACACACGTGGGGAT | -0.12 |

| Sequence | relative binding free energy [kcal/mol] |
| --- | --- |
| TGTAGCACGTGAGTGC | 0.06 |
| CTGGACACGTGTGCGG | -0.07 |
| GTTTCCACGTGGGGTG | 0.07 |
| GGGAACACGTGTGGTT | 0.2 |
| TATGCCACGTGAAGGG | 0.02 |
| GAATTCACGTGTTAGA | 0.48 |
| GTTTACACGTGAGTCG | 0.37 |
| GTTTTCACGTGGTGAG | 0.21 |
| TAGCACACGTGGGAGG | -0.12 |
| TAATTCACGTGTACGT | 0.22 |
| GTTGGCACGTGCGAAG | -0.08 |
| GACAGCACGTGTTGGG | 0.11 |
| TTGCACACGTGGATAG | 0.16 |
| CATTACACGTGTTGTA | 0.13 |
| GAGGCCACGTGGGGTT | -0.16 |
| AGTTTCACGTGTTTTG | 0.3 |
| ACTGTCACGTGTTAAT | 0.17 |
| AGGTGCACGTGATTGG | 0.06 |
| GTTTTCACGTGAGGGC | 0.29 |
| AGGGCCACGTGTGTTG | -0.18 |
| GATGGCACGTGTAAGC | 0.11 |
| GGTGACACGTGTGGAG | 0.19 |
| AGCGTCACGTGCGGAG | 0 |

| Sequence | relative binding free energy [kcal/mol] |
| --- | --- |
| TAGTTCACGTGTGCCG | 0.36 |
| ATGCGCACGTGTTCGT | -0.1 |
| TGTAACACGTGATAAG | 0.22 |
| AATGCCACGTGTATTT | 0.11 |
| TTGGTCACGTGTTTGT | 0.14 |
| GGGTGCACGTGTCGGC | 0.11 |
| CGGTTCACGTGTGGCA | 0.4 |
| GTTAGCACGTGGGATT | 0 |
| TTGTACACGTGGTTTA | 0.08 |
| AGGGCCACGTGGTTGA | -0.15 |
| GTGGGCACGTGGACTT | -0.06 |
| ATGGTCACGTGTAAAT | 0.31 |
| TTACTCACGTGAGGTT | 0.35 |
| TATCACACGTGCGGTA | 0.14 |
| CGTGTCACGTGCGTTA | 0 |
| ATCTTCACGTGGTGAA | 0.25 |
| TGGCTCACGTGTTGTA | 0.21 |
| ATATACACGTGTGCAT | 0.06 |
| TGAGACACGTGGTGTC | -0.05 |
| TGAGCCACGTGGGCGT | -0.3 |
| ACGGTCACGTGAGGCG | 0.24 |
| AGTCTCACGTGTCGTG | 0.25 |
| TTTGTCACGTGTTTTT | 0.13 |

| Sequence | relative binding free energy [kcal/mol] |
| --- | --- |
| TAATTCACGTGCGGGG | 0.2 |
| TGGATCACGTGGTGGC | 0.15 |
| GGATTCACGTGCATGG | 0.26 |
| GGTGGCACGTGTTGTG | 0.09 |
| TGTGGCACGTGCGATA | -0.08 |
| AGGAGCACGTGAGGCG | 0.12 |
| TAGGGCACGTGTCTCG | -0.18 |
| CTTTTCACGTGTTAGC | 0.3 |
| TAAATCACGTGTGATT | 0.43 |
| AAAGACACGTGTAGGT | 0.1 |
| AGGTGCACGTGCGTGG | -0.09 |
| CGGGGCACGTGGTTAG | -0.24 |
| AGCAACACGTGGCGGG | -0.05 |
| CGTGGCACGTGTGTTT | -0.13 |
| TGGTCCACGTGTGTTT | 0.23 |
| TTGCGCACGTGGGTAA | -0.24 |
| TTTCACACGTGTTTTC | 0.17 |
| AGACGCACGTGTGGAG | 0.04 |
| CGTATCACGTGGTGCG | -0.06 |
| GTATGCACGTGATCAT | 0.07 |
| CGAAGCACGTGGGGTG | -0.3 |
| TTAGGCACGTGACATG | 0.03 |
| TGATCCACGTGGGCGT | -0.06 |

From the BET-seq Pho4 binding data (Le et al. 2018)
